PubChem BioAssay AID1345083 (National Center for Advancing Translational Sciences (NCATS), 2018)
Out of some 94,000 compounds screened, about 6,200 (6.6%) were called active. This list was built around the results that the source calls inconclusive (neither active nor inactive); the mix of calls is not that of the screen. Calls come from the whole dose curve; as a rule, active = well fitted inhibition curve with a large enough effect; inconclusive = small, poorly fitted or top-dose-only effect; inactive = flat fitted curve, though single readings scatter. A potency beside an inconclusive call is a rough fit, not a confirmed value.
Potency is the fitted concentration of half-maximal effect; tags give direction and shape of the fitted curve.

Assay: Cytotoxic Profiling in HEK 293 Cell Line of Diverse Libraries Using Quantitative High-Throughput Screening; note: nearly all actives have a fitted effect of over 60% in size
Conditions: HEK 293 viability, ATP luminescence (CellTiter-Glo), 48-72 h; series mostly up to 115 µM
Method in brief: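 Luminescence from cellular ATP, measured with CellTiter-Glo, indicates HEK 293 viability. Cells plated at 250 cells/well are treated with compound for 48 or 72 hr at 37 degree Celsius before reagent addition.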
In the case of `COc1ccccc1CN1Cc2[nH]cnc2C[C@H]1c1nc(-c2cccc(C)c2)no1`, the Potency is reported as active: 63.1 µM. With `Cc1ccc2nc3n(c2c1)[C@@H](CNS(=O)(=O)Cc1ccccc1)COC3` the Potency was inconclusive: 100 µM [inhibitor, partial curve]. With `O=C1CC(c2ccccc2)N(C(=O)Cc2cccc(F)c2)CCCCCCN1` (stereo not given) the Potency was inconclusive: 100 µM [inhibitor, single point]. With `COCCOC1CCN(C(=O)c2ccsc2)C1` (stereo not given) the Potency was “inactive”. With `CC(=O)N1CCN(C(=O)c2cc(-c3cccc(C(F)(F)F)c3)nc3c2cnn3C)CC1` the Potency was “inactive”. In the case of `Cc1noc(-c2cn(C3CCN(C(=O)c4ccc5c(c4)OCO5)C3)nn2)n1` (stereo not given), the Potency is reported as “inactive”. For `COCCN1CC2(CCOC2)N(C2CCN(C(=O)CCC3CCCC3)CC2)C1=O` (stereo not given), the Potency was “inactive”. With `COc1ccc(S(=O)(=O)N2CCc3c(C(=O)N4CCCC4)cccc32)cc1` the Potency was inconclusive: 89.1 µM [inhibitor, single point]. For `Cc1sc2ccn(C)c(=O)c2c1C(=O)NCc1ccc(OC(C)C)cc1`, the Potency was inconclusive: 89.1 µM [inhibitor, single point]. For `Cc1c(-c2ccc(F)cc2)[nH]c2ccc(CNC(=O)c3cnn(C)c3)cc12`, the Potency was active: 39.8 µM. With `O=C(c1nc2cccnc2n(Cc2ccccc2)c1=O)N1CCN([S+](=O)([O-])c2cccc(C(F)(F)F)c2)CC1` the Potency was inconclusive: 8.91 µM [inhibitor, full curve, poor fit]. With `CCOc1ccc(C(=O)N2CCC[C@H]2c2nc(-c3ccccc3)no2)cc1` the Potency was “inactive”. With `COc1cccc(-c2c(C(=O)NCCc3ccccc3)nc3sccn23)c1` the Potency was inconclusive: 70.8 µM [inhibitor, partial curve, poor fit]. With `O=C(c1cccc(Cl)c1)N1CCN(c2ccnc3ccnn23)CC1` the Potency was inconclusive: 79.4 µM [inhibitor, partial curve, poor fit]. In the case of `COc1ccccc1-c1ccc(CN2CCC(NC(=O)c3cccnc3)C2)cc1` (stereo not given), the Potency is reported as inconclusive: 56.2 µM [inhibitor, partial curve, poor fit]. For `COc1ccc(Nc2ccnc(N3CCC(NC(=O)c4ccccn4)CC3)n2)cc1`, the Potency was inconclusive: 35.5 µM [inhibitor, partial curve, poor fit]. For `O=C(N[C@@H]1CCOC[C@H]1OCCO)C1CCN(Cc2ccco2)CC1`, the Potency was “inactive”. In the case of `COc1ccc(-c2ccc3c(c2)C(=O)N2CC[C@H](NC(=O)c4cccs4)[C@H]2C(=O)N3)c(OC)c1`, the Potency is reported as inconclusive: 89.1 µM [inhibitor, single point]. For `COc1ccc(C(=O)N2CCN(C(=O)c3nnn4c3COC(c3ccccc3)C4)CC2)c(C)c1` (stereo not given), the Potency was inconclusive: 50.1 µM [inhibitor, partial curve, poor fit]. With `N#Cc1ccc(C(=O)N[C@H]2[C@H](O)[C@H](O)C[C@@H]2c2ccc(C(F)(F)F)nc2)cc1` the Potency was “inactive”. With `O=C(C1CC1)N1CCn2c(nnc2[C@@H]2C[C@@H](O)CN2Cc2ccccc2)C1` the Potency was “inactive”. In the case of `COc1ccccc1CC(=O)N1CCCc2ncc(C(=O)Nc3cccc(Cl)c3)cc21`, the Potency is reported as active: 56.2 µM. With `COc1ccccc1C(=O)N1CC(=O)N(Cc2cccs2)CC(O)C1` (stereo not given) the Potency was inconclusive: 31.6 µM [inhibitor, single point]. In the case of `CCN1CCCN(S(=O)(=O)c2cc(OC)ccc2OC)CC12CCOCC2`, the Potency is reported as “inactive”. With `COc1ccc(C(=O)N2CCC[C@H](n3c(=O)n(CC4CC4)c4cccnc43)C2)c(OC)c1` the Potency was inconclusive: 50.1 µM [inhibitor, partial curve, poor fit]. For `CC(C)c1nc2c(c(-c3ccc(Cl)cc3)n1)CCN(Cc1ccc(C(F)(F)F)cc1)CC2`, the Potency was inconclusive: 56.2 µM [inhibitor, partial curve, poor fit]. In the case of `COCCOc1ccc2c(n1)CCN(C(=O)C1(c3ccccc3)CC1)C2`, the Potency is reported as inconclusive: 56.2 µM [inhibitor, partial curve, poor fit]. For `O=C(Cc1cccc(F)c1)Nc1cnc(-c2cccnc2)nc1`, the Potency was “inactive”. In the case of `O=S(=O)(c1ccc(F)cc1)N1CCCC(CN2CCCC2)CC1` (stereo not given), the Potency is reported as inconclusive: 89.1 µM [inhibitor, partial curve, poor fit]. With `COc1ccc(-c2cc(C(=O)NCCc3cnc[nH]3)c3c(c2)N(C)CCO3)cc1OC` the Potency was “inactive”. For `O=C1c2cc(N3CCOCC3)nc(-c3cccc(CO)c3)c2CN1c1ccccc1`, the Potency was inconclusive: 50.1 µM [inhibitor, full curve]. For `O=C(NCc1ccccc1)c1noc(-c2ccc(F)cc2)n1`, the Potency was inconclusive: 89.1 µM [inhibitor, single point]. In the case of `COc1cccc(CN(C)Cc2ccc(C)o2)c1O`, the Potency is reported as “inactive”. With `O=C1Cc2c(-c3ccc4ccccc4c3)n[nH]c2CN1CCc1ccncc1` the Potency was inconclusive: 126 µM [inhibitor, single point]. For `Cc1ccccc1NCc1nc2c(n1Cc1ccccc1)C(=O)N(C)CCN2`, the Potency was inconclusive: 100 µM [inhibitor, partial curve]. With `Cc1ccc([S+](=O)([O-])N2CCCC(C(=O)N3CCC(N4CCOC4=O)CC3)C2)cc1` (stereo not given) the Potency was inconclusive: 89.1 µM [inhibitor, single point]. With `C[S+](=O)([O-])N1C[C@H](C(=O)Nc2cccc(Cl)c2)C[C@@H]1c1ccc(F)cc1` the Potency was inconclusive: 100 µM [inhibitor, partial curve]. For `CCn1nccc1C(=O)N1CCC(c2nc(CCOc3cccc(C)c3)no2)C1` (stereo not given), the Potency was inconclusive: 50.1 µM [inhibitor, partial curve, poor fit]. With `COc1ccccc1-c1cccc(CN2CCCC(C(=O)N3CCN(Cc4ccccc4)CC3)C2)c1` (stereo not given) the Potency was active: 39.8 µM. With `Cn1cnnc1CC1CCN(C(=O)c2ccccc2)CC1` the Potency was inconclusive: 35.5 µM [inhibitor, single point]. With `O=C1NCc2ccccc2CC12CCN(Cc1ccccc1OC(F)(F)F)CC2` the Potency was inconclusive: 50.1 µM [inhibitor, partial curve, poor fit]. In the case of `CN(C)C[C@H]1O[C@H](Cc2cc(-c3cccc(O)c3)on2)CC[C@@H]1O`, the Potency is reported as “inactive”. With `O=C1CC2(CCN(C(=O)C3CCCN(C(=O)c4ccc(C(F)(F)F)cc4)C3)CC2)Oc2ccccc2N1` (stereo not given) the Potency was inconclusive: 50.1 µM [inhibitor, partial curve, poor fit]. In the case of `Cc1c(-c2ccccc2F)[nH]c2ccc(CNC(=O)CCC3=NNC(=O)CC3)cc12`, the Potency is reported as inconclusive: 79.4 µM [inhibitor, partial curve, poor fit]. In the case of `COc1ccc2[nH]cc(CCNC(=O)C3CC(=O)N(c4n[nH]c5cccc(F)c45)C3)c2c1` (stereo not given), the Potency is reported as inconclusive: 89.1 µM [inhibitor, single point]. For `CCc1nc(C)c(C(=O)NCc2cccnc2Oc2ccc(F)c(F)c2)o1`, the Potency was inconclusive: 89.1 µM [inhibitor, partial curve, poor fit]. With `Cc1nsc(NC(=O)NCc2cccc(Cl)c2Cl)n1` the Potency was inconclusive: 50.1 µM [inhibitor, partial curve, poor fit]. In the case of `Cc1cnccc1N1CCCN(Cc2cnc(-c3cccs3)nc2)CC1`, the Potency is reported as inconclusive: 44.7 µM [inhibitor, partial curve, poor fit]. For `Cc1cccc(S(=O)(=O)N2CCCN(C)c3ccccc32)c1`, the Potency was inconclusive: 89.1 µM [inhibitor, single point]. With `O=C(NCc1nnc2n1C(C(=O)NCc1ccc(F)cc1)CC2)C1CC1` (stereo not given) the Potency was “inactive”. In the case of `CC(=O)c1c(C)nn(CC(=O)NCc2c(C)ncc3c2CCNC3)c1C`, the Potency is reported as “inactive”. With `Cc1ccc(-c2ccc3ncn(Cc4ccccn4)c(=O)c3n2)c(C)c1` the Potency was “inactive”. For `CC(C)Oc1cc(-c2ccc(C(C)N3CCOCC3)cc2)nc(N)n1` (stereo not given), the Potency was inconclusive: 39.8 µM [inhibitor, partial curve, poor fit]. For `O=C(NC1CCCCC1)C1c2ccccc2C(=O)N(Cc2ccccc2)C12CCCC2` (stereo not given), the Potency was inconclusive: 28.2 µM [inhibitor, partial curve, poor fit]. With `CCCC(C)C(=O)N1CCCN(C)c2ccccc21` (stereo not given) the Potency was inconclusive: 89.1 µM [inhibitor, partial curve, poor fit]. For `Cc1ccc(OCc2nc(C3CCN(C(=O)Cc4cccc(F)c4)C3)no2)cc1` (stereo not given), the Potency was inconclusive: 50.1 µM [inhibitor, partial curve, poor fit]. With `COc1ccc(OC)c(CN2CCC3OCCN(Cc4ccccc4)C(=O)C3C2)c1` (stereo not given) the Potency was inconclusive: 100 µM [inhibitor, partial curve, poor fit]. For `CC(C)CN1C(=O)c2cccn2CC1CNC(=O)c1n[nH]c(=O)c2ccccc12` (stereo not given), the Potency was “inactive”. For `COc1ccc(CC(=O)Nc2ccc([C@@H](O)[C@H]3COCC(=O)N3Cc3ccccc3OC)cc2)cc1`, the Potency was inconclusive: 56.2 µM [inhibitor, partial curve, poor fit]. With `CCC(CC)C(=O)N1CC[C@H]2NC(=O)N(c3ccc(C(C)C)cc3)C(=O)[C@H]21` the Potency was inconclusive: 126 µM [inhibitor, single point]. In the case of `O=C(c1ccccc1F)N1CCN(C(=O)c2nc3cccnc3n(C3CC3)c2=O)CC1`, the Potency is reported as “inactive”. With `CCOc1ccc(-c2cc3c(=O)n(CCNC(=O)c4cccc(Cl)c4)ccn3n2)cc1` the Potency was “inactive”. For `O=C(Nc1ccc2c(c1)CCC2)C1CCN(C(=O)c2ncn3c2COC(c2ccc(F)cc2)C3)CC1` (stereo not given), the Potency was “inactive”. In the case of `O=C(NCc1ccc2c(c1)OCO2)c1nc(-c2ccc(F)cc2)c2cnccn12`, the Potency is reported as inconclusive: 89.1 µM [inhibitor, single point]. For `CN(C)C(=O)C1CN(C(=O)NC2CCCCC2)CC12CCOCC2` (stereo not given), the Potency was “inactive”.
